In all, about 120,000 compounds went through this assay and about 5,300 (4.4%) were called active. The inconclusive results got no clear call from the source; some entries with a clear call stand among them for comparison. The call rests on the fitted dose curve; in most records, active means well fitted inhibition curve with a large enough effect; inconclusive means small, poorly fitted or top-dose-only effect; inactive means no such curve, though single readings can be large or run the other way. A potency beside an inconclusive call is a rough fit, not a confirmed value.
assay: qHTS Primary assay for Inhibitors of Plasmodium falciparum Dd2 growth in vitro; further: nearly all actives have a fitted effect of over 65% in size;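 on activity, negative = inhibition: plate controls were DMSO vehicle for no effect and reference drug for full effect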; conditions: P. falciparum Dd2 growth, SYBR Green, 72 h; activity, negative = inhibition: at 28.9 µM (top of the series) unless noted; series mostly up to 28.9 µM
How it was run: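 Infected erythrocytes (Dd2, 0.3% parasitemia, 2.5% hematocrit final) are added to compound in RPMI-1640/Albumax II medium, grown 72 h at 37C in low oxygen, then lysed with saponin/Triton-X containing SYBR Green and read by fluorescence.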
Potency means the concentration at half of the fitted maximal effect; tags describe the fitted curve by direction and shape.

**Q.** For Fc1ccc2nc(CO[C@H]3CN(Cc4ccc5ccccc5n4)C[C@H]3F)[nH]c2c1, which Potency is on record?
**A.** inconclusive: 12.6 µM [inhibitor, partial curve, poor fit]

**Q.** For CCc1noc(-c2ccn3c(CNC(=O)c4ccc(OC)cc4)nnc3c2)n1, which Potency is on record?
**A.** inconclusive: 14.1 µM [inhibitor, partial curve, poor fit]

**Q.** Which Potency does the source give for O=C(NCc1ccccc1)NC[C@H]1O[C@@H]2C[C@@H](CC(=O)N3CCC(F)(F)C3)O[C@@H]2[C@@H]1O here?
**A.** inconclusive: 2.51 µM [inhibitor, single point]

**Q.** With CCOC(=O)C1(Cc2ccccc2Cl)CCN(Cc2cccnc2)CC1 as the compound, how does the Potency read?
**A.** inconclusive: 3.55 µM [inhibitor, single point]

**Q.** For CN(C)c1ccc(C(=O)NC2CCN(c3cnn(C)c(=O)c3)CC2)cc1, which Potency is on record?
**A.** inconclusive: 3.55 µM [inhibitor, partial curve]

**Q.** For CCn1cc2c3c(cccc31)CN(C(=O)c1ccc(OC)cc1)CC2, which Potency is on record?
**A.** inconclusive: 20 µM [inhibitor, single point]

**Q.** Which Potency does the source give for CCOc1ccc(Nc2nc(-c3ccccc3)no2)cc1 here?
**A.** inconclusive: 20 µM [inhibitor, single point]

**Q.** Which Potency does the source give for Cc1ccc(NC(=O)Cn2c(-c3ccccc3)nc(C)c(CCO)c2=O)c(C)c1 here?
**A.** inconclusive: 7.94 µM [inhibitor, single point]

**Q.** With Cc1cccc(N2C(=O)CS(=O)(=O)C23C(=O)N(Cc2c(F)cccc2Cl)c2ccccc23)c1 (stereo unspecified) as the compound, how does the Potency read?
**A.** inconclusive: 17.8 µM [inhibitor, single point]

**Q.** For CN(C)c1cccc(NC(=O)c2ccc3c(c2)NC(C)(COc2cccnc2)CO3)c1 (stereo unspecified), which Potency is on record?
**A.** inconclusive: 3.16 µM [inhibitor, single point]

**Q.** For C[C@@H]1C(=O)O[C@H]2[C@H]1CC[C@@]1(C)Cc3sc(NC(=O)c4ccc(F)c(Cl)c4)nc3[C@@H](C)[C@H]21, which Potency is on record?
**A.** active: 11.2 µM

**Q.** With O=C(NCCn1ccn2nc(-c3ccc(F)cc3)cc2c1=O)c1ccc2[nH]ccc2c1 as the compound, how does the Potency read?
**A.** inconclusive: 1.26 µM [inhibitor, partial curve, poor fit]

**Q.** For COc1cccc(-c2cn3c(n2)sc2cc(C(=O)NCCc4ccc(OC)c(OC)c4)ccc23)c1, which Potency is on record?
**A.** inconclusive: 17.8 µM [inhibitor, single point]

**Q.** For N#CC1=C(N)N(c2cccc(Cl)c2)C2=C(C(=O)CCC2)C1c1cc(CN2CCOCC2)cs1 (stereo unspecified), which Potency is on record?
**A.** active: 10 µM

**Q.** With CC(C)c1noc(-c2cn(C3CCCN(C(=O)c4ccc(C(C)(C)C)cc4)C3)nn2)n1 (stereo unspecified) as the compound, how does the Potency read?
**A.** inconclusive: 1.41 µM [inhibitor, full curve, poor fit]

**Q.** For CC(C)c1nc(-c2ccc(OC3CCN(S(=O)(=O)Cc4ccccc4)C3)cc2)no1 (stereo unspecified), which Potency is on record?
**A.** inconclusive: 1.26 µM [inhibitor, partial curve, poor fit]

**Q.** With COC(=O)CNC(=O)c1nc(C(C)(C)C)c2cnccn12 as the compound, how does the activity, negative = inhibition read?
**A.** inconclusive: -36.6% [inhibitor] [at 44.1 µM]

**Q.** For CC(C)(C(=O)N1CCc2[nH]nc(-c3ccc(F)c(F)c3)c2C1)n1cccc1, which Potency is on record?
**A.** inconclusive: 20 µM [inhibitor, single point]

**Q.** For CCCCCN1CCCCC12Cc1ccccc1CNC2=O (stereo unspecified), which Potency is on record?
**A.** inconclusive: 7.08 µM [inhibitor, partial curve, poor fit]

**Q.** With Cc1cc(F)ccc1OC1CN(Cc2ccsc2)C1 as the compound, how does the Potency read?
**A.** inconclusive: 7.94 µM [inhibitor, partial curve, poor fit]

**Q.** Which Potency does the source give for CCS(=O)(=O)c1nc(S(=O)(=O)c2ccc(C)cc2)c(NCCCOC)s1 here?
**A.** inconclusive: 17.8 µM [inhibitor, single point]

**Q.** For c1cc(CN(CCN2CCCCC2)CC2CCCN(C3CCCC3)C2)c2nonc2c1 (stereo unspecified), which Potency is on record?
**A.** inconclusive: 10 µM [inhibitor, single point]

**Q.** For CC1(c2ccccc2)N(Cc2cccnc2)C(=O)OC12CCN(C(=O)c1ccccc1)CC2 (stereo unspecified), which Potency is on record?
**A.** inconclusive: 2.24 µM [inhibitor, partial curve, poor fit]

**Q.** For CCOC(=O)c1cc(S(=O)(=O)N2CCN(c3ccc(C(C)=O)cc3)CC2)[nH]n1, which Potency is on record?
**A.** inconclusive: 17.8 µM [inhibitor, single point]

**Q.** Which Potency does the source give for Cc1ccc(NC(=O)N2CCC(CCNC(=O)c3cccc(F)c3)CC2)cc1 here?
**A.** inconclusive: 10 µM [inhibitor, partial curve, poor fit]

**Q.** Which “outcome” value does the source give for O=c1c2c(CO)c(-c3ccc(F)cc3)nn2ccn1Cc1cc(=O)n2ccccc2n1 here?
**A.** inactive

**Q.** For COc1ccccc1N1CCN(c2cc(C)nc3nc(-c4ccc(C)cc4)nn23)CC1, which Potency is on record?
**A.** inconclusive: 1.78 µM [inhibitor, partial curve, poor fit]

**Q.** With CN(Cc1cccnc1)c1nc2c(c(=O)[nH]1)CCN(Cc1ccccc1)CC2 as the compound, how does the Potency read?
**A.** inconclusive: 2 µM [inhibitor, partial curve, poor fit]

**Q.** With CN1C[C@H](O)C[C@H]1c1nnc2n1CCN(C(=O)C1CCC1)CC2 as the compound, how does the “activity, negative = inhibition” value read?
**A.** inactive: 1.23%

**Q.** Which Potency does the source give for COc1cc2c(cc1CCc1ccccc1)N(C(=O)CC(C)C)CC21CCN(C(C)=O)CC1 here?
**A.** active: 3.98 µM

**Q.** With Cn1cnc(C(=O)N2CCC3(CC2)CC(N(Cc2ccccc2)C2CC2)CCO3)c1 (stereo unspecified) as the compound, how does the Potency read?
**A.** inconclusive: 6.31 µM [inhibitor, partial curve, poor fit]

**Q.** For O=C(NC1CCCN(c2cc(N3CCCC3)ncn2)C1)c1cccnc1 (stereo unspecified), which activity, negative = inhibition is on record?
**A.** inactive: -16.5% [at 5.79 µM]

**Q.** Which Potency does the source give for NC(=O)C1Cc2ccccc2CN1C(=O)CCc1nc2ccccc2[nH]c1=O (stereo unspecified) here?
**A.** inconclusive: 5.01 µM [inhibitor, partial curve]

**Q.** Which “activity, negative = inhibition” value does the source give for O=C(COc1ccccc1)N1CCN2C(=O)N(Cc3ccccc3)C(=O)[C@H]2C1 here?
**A.** inactive: -27.7% [at 44.1 µM]

**Q.** With CCN(Cc1ccccc1)C(=O)Cn1c(=O)n(-c2ccc(Cl)cc2)c(=O)c2c(C)c(C(=O)N(C)C)sc21 as the compound, how does the Potency read?
**A.** inconclusive: 8.91 µM [inhibitor, partial curve]

**Q.** Which Potency does the source give for CCOc1ccccc1CN1CCC2(CCN(C(=O)Nc3ccccc3)CC2)Oc2ccccc21 here?
**A.** active: 7.08 µM

**Q.** With CCCCN(C)S(=O)(=O)c1ccc(C(=O)Nc2sc3c(c2C(N)=O)CC(C)(C)NC3(C)C)cc1 as the compound, how does the Potency read?
**A.** inconclusive: 12.6 µM [inhibitor, partial curve]

**Q.** Which Potency does the source give for O=C(c1ccccc1)N1Cc2ccccc2CC2(CCCCN2Cc2ccncc2)C1 (stereo unspecified) here?
**A.** inconclusive: 10 µM [inhibitor, single point]

**Q.** With CN(C(=O)c1ccc2c(c1)NC(C)(CNCc1ccccc1)CO2)c1ccccc1 (stereo unspecified) as the compound, how does the Potency read?
**A.** inconclusive: 0.708 µM [inhibitor, partial curve, poor fit]

**Q.** With CC(C)c1ccc(S(=O)(=O)N2CCC3(CCCNC3)C2)cc1 (stereo unspecified) as the compound, how does the Potency read?
**A.** active: 5.01 µM

**Q.** With CC(CNC(=O)c1ccc(CSc2nc3ccncc3n2Cc2ccccc2)cc1)c1ccccc1 (stereo unspecified) as the compound, how does the Potency read?
**A.** inconclusive: 3.55 µM [inhibitor, partial curve, poor fit]

**Q.** With COc1ccc(-c2noc([C@@H]3C[C@H](NS(=O)(=O)c4ccc(OC)cc4)CN3C)n2)cc1 as the compound, how does the Potency read?
**A.** inconclusive: 0.178 µM [inhibitor, full curve, poor fit]

**Q.** For Cc1cnccc1CNC(=O)CC(c1cccc(O)c1)c1cccc(Cl)c1 (stereo unspecified), which “activity, negative = inhibition” value is on record?
**A.** inactive: -15.8%

**Q.** For O=C(NCC1CCCO1)C1COC2(CCN(C(=O)c3ccccc3F)CC2)N1C(=O)c1ccccc1 (stereo unspecified), which “activity, negative = inhibition” value is on record?
**A.** inactive: 15.1%

**Q.** Which “activity, negative = inhibition” value does the source give for CCC1(O)CCC12CCN(C(=O)Cc1cccnc1)CC2 (stereo unspecified) here?
**A.** inactive: -9.7%

**Q.** For Cc1nc(-c2ccco2)cc([C@H]2CN3CC[C@H]2C[C@@H]3CNC(=O)C(C)(C)C)n1, which Potency is on record?
**A.** inconclusive: 10 µM [inhibitor, partial curve]

**Q.** Which “outcome” value does the source give for CCOc1ccc(CC(=O)N2CCC(Cc3nc(-c4ccc(F)cc4)no3)CC2)cc1 here?
**A.** inactive

**Q.** Which Potency does the source give for O=S(=O)(c1ccc2nc(NCc3ccccc3Cl)ccc2c1)N1CCCCC1 here?
**A.** inconclusive: 11.2 µM [inhibitor, single point]

**Q.** With O=C(Cn1nc2n(c1=O)CCCCC2)Nc1cccc(Br)c1 as the compound, how does the “outcome” value read?
**A.** inactive

**Q.** Which Potency does the source give for NC(=O)c1cccc(-c2ncc3c(n2)OCCN(c2cccc(C(F)(F)F)c2)C3=O)c1 here?
**A.** inconclusive: 1 µM [inhibitor, partial curve]

**Q.** For Cc1cc(C)cc(C(=O)NC2CCN(C(=O)c3cc4c(=O)[nH]c(C)cn4n3)CC2)c1, which Potency is on record?
**A.** inconclusive: 3.98 µM [inhibitor, single point]

**Q.** Which Potency does the source give for Cc1ccc(NC(=O)N2CCCC(Cn3c(C4CC4)nc4cccnc43)C2)cc1 (stereo unspecified) here?
**A.** inconclusive: 8.91 µM [inhibitor, single point]

**Q.** Which Potency does the source give for COc1ccc(OC)c(S(=O)(=O)N2CCC([C@H]3[C@@H](OC)C(=O)N3C(C)C)CC2)c1 here?
**A.** inconclusive: 12.6 µM [inhibitor, single point]

**Q.** Which “activity, negative = inhibition” value does the source give for O=C(Nc1nc2ccccc2s1)c1ccc(S(=O)(=O)N2CCCC2)cc1 here?
**A.** inactive: -5.42%

**Q.** With CN(C)S(=O)(=O)N1CCCN(Cc2ccncc2)C(c2ccccc2)CC(=O)NCC1 (stereo unspecified) as the compound, how does the Potency read?
**A.** active: 10 µM

**Q.** Which Potency does the source give for Cc1noc(C)c1-c1cc(-c2cccc(F)c2)cn2cncc12 here?
**A.** inconclusive: 3.55 µM [inhibitor, full curve, poor fit]

**Q.** With O=C(C1CCC1)N1CCC(O)(c2csc(CN3CCc4ccccc4C3)n2)CC1 as the compound, how does the Potency read?
**A.** inconclusive: 31.6 µM [inhibitor, single point]

**Q.** With CCC(=O)N1Cc2ccccc2CC2(CCCN2CC2CCOCC2)C1 (stereo unspecified) as the compound, how does the Potency read?
**A.** inconclusive: 14.1 µM [inhibitor, partial curve, poor fit]

**Q.** For COc1ccccc1C(=O)N1CCC(c2noc(-c3ccc(S(=O)(=O)N4CCCC4)cc3)n2)CC1, which Potency is on record?
**A.** inconclusive: 15.8 µM [inhibitor, single point]

**Q.** Which Potency does the source give for N#Cc1ccc(CN2CCn3c(nnc3-c3ccccc3)C2)cc1 here?
**A.** inconclusive: 31.6 µM [inhibitor, single point]

**Q.** Which “activity, negative = inhibition” value does the source give for Cc1c(CC(=O)NCC2CC2)c2c(n1Cc1ccccc1F)CCCC2=O here?
**A.** inactive: -8.27%

— PubChem BioAssay AID1347417 (National Center for Advancing Translational Sciences (NCATS), 2020)
